Laboratory results: the supplement of paper PMC10724272

Columns and labels:
Experiment in all cases: CLSI broth microdilution.
[1] = compound: C[C@@H]1[C@H](O)[C@@H](C)/C=C/C=C/C=C/C=C/C=C/C=C/C=C/[C@H](O[C@@H]2O[C@H](C)[C@@H](O)[C@H](N)[C@@H]2O)C[C@@H]2O[C@](O)(C[C@@H](O)C[C@@H](O)[C@H](O)CC[C@@H](O)C[C@@H](O)CC(=O)O[C@H]1C)C[C@H](O)[C@H]2C(=O)O [amphotericin B]
[2] = compound: OC(Cn1cncn1)(Cn1cncn1)c1ccc(F)cc1F [fluconazole]
[3] = compound: CCC(C)n1ncn(-c2ccc(N3CCN(c4ccc(OCC5COC(Cn6cncn6)(c6ccc(Cl)cc6Cl)O5)cc4)CC3)cc2)c1=O [itraconazole]
[4] = compound: CC[C@H](C)C[C@H](C)CCCCCCCCC(=O)N[C@H]1C[C@@H](O)[C@@H](NCCN)NC(=O)[C@@H]2[C@@H](O)CCN2C(=O)[C@H]([C@H](O)CCN)NC(=O)[C@H]([C@H](O)[C@@H](O)c2ccc(O)cc2)NC(=O)[C@@H]2C[C@@H](O)CN2C(=O)[C@H]([C@@H](C)O)NC1=O [caspofungin]
[5] = compound: CCCCCOc1ccc(-c2ccc(-c3ccc(C(=O)N[C@H]4C[C@@H](O)[C@@H](O)NC(=O)[C@@H]5[C@@H](O)[C@@H](C)CN5C(=O)[C@H]([C@@H](C)O)NC(=O)[C@H]([C@H](O)[C@@H](O)c5ccc(O)cc5)NC(=O)[C@@H]5C[C@@H](O)CN5C(=O)[C@H]([C@@H](C)O)NC4=O)cc3)cc2)cc1 [anidulafungin]
[6] = compound: CCCCCOc1ccc(-c2cc(-c3ccc(C(=O)N[C@H]4C[C@@H](O)[C@@H](O)NC(=O)[C@@H]5[C@@H](O)[C@@H](C)CN5C(=O)[C@H]([C@H](O)CC(N)=O)NC(=O)[C@H]([C@H](O)[C@@H](O)c5ccc(O)c(OS(=O)(=O)O)c5)NC(=O)[C@@H]5C[C@@H](O)CN5C(=O)[C@H]([C@@H](C)O)NC4=O)cc3)no2)cc1 [micafungin]
[7] = compound: Nc1[nH]c(=O)ncc1F [flucytosine]
[8] = compound: CC[C@@H]([C@H](C)O)n1ncn(-c2ccc(N3CCN(c4ccc(OC[C@@H]5CO[C@@](Cn6cncn6)(c6ccc(F)cc6F)C5)cc4)CC3)cc2)c1=O [posaconazole]
[9] = compound: C[C@@H](c1ncncc1F)[C@](O)(Cn1cncn1)c1ccc(F)cc1F [voriconazole]

Test System | MIC [1] | MIC [2] | MIC [3] | MIC [4] | MIC [5] | MIC [6] | MIC [7] | MIC [8] | MIC [9]
Candida tropicalis isolate 261 (ERG11 copies: 8, Erg11p: Y132F, S154F (heterozygous)) | 1 mg/L [S] | 512 mg/L [R] | 0.5 mg/L [S] | 0.03 mg/L [S] | 0.03 mg/L [S] | 0.03 mg/L [S] | ≤ 0.06 mg/L [S] | 0.5 mg/L [R] | ≥ 8 mg/L [R]
Candida tropicalis isolate 262 (ERG11 copies: 2, Erg11p: no key change) | 1 mg/L [S] | 1 mg/L [S] | 0.25 mg/L [S] | 0.03 mg/L [S] | 0.03 mg/L [S] | 0.03 mg/L [S] | ≤ 0.06 mg/L [S] | 0.25 mg/L [S] | 0.12 mg/L [S]
Candida tropicalis isolate 263 (ERG11 copies: 6, Erg11p: Y132F, S154F (heterozygous)) | 1 mg/L [S] | 256 mg/L [R] | 0.5 mg/L [S] | 0.03 mg/L [S] | 0.06 mg/L [S] | 0.03 mg/L [S] | ≤ 0.06 mg/L [S] | 0.5 mg/L [R] | ≥ 8 mg/L [R]
Candida tropicalis isolate 264 (ERG11 copies: 2, Erg11p: no key change) | 1 mg/L [S] | 1 mg/L [S] | 0.12 mg/L [S] | 0.03 mg/L [S] | 0.03 mg/L [S] | 0.03 mg/L [S] | ≤ 0.06 mg/L [S] | 0.12 mg/L [S] | 0.12 mg/L [S]
Candida tropicalis isolate 265 (ERG11 copies: 13, Erg11p: Y132F, S154F (homozygous)) | 1 mg/L [S] | 512 mg/L [R] | 2 mg/L [R] | 0.06 mg/L [S] | ≤ 0.015 mg/L [S] | 0.03 mg/L [S] | ≤ 0.06 mg/L [S] | 2 mg/L [R] | ≥ 8 mg/L [R]
Candida tropicalis isolate 266 (ERG11 copies: 2, Erg11p: no key change) | 1 mg/L [S] | 2 mg/L [S] | 0.25 mg/L [S] | 0.03 mg/L [S] | ≤ 0.015 mg/L [S] | 0.015 mg/L [S] | ≤ 0.06 mg/L [S] | 0.25 mg/L [S] | 0.12 mg/L [S]
Candida tropicalis isolate 267 (ERG11 copies: 2, Erg11p: no key change) | 0.5 mg/L [S] | 1 mg/L [S] | 0.06 mg/L [S] | 0.03 mg/L [S] | 0.06 mg/L [S] | 0.03 mg/L [S] | ≤ 0.06 mg/L [S] | 0.06 mg/L [S] | 0.06 mg/L [S]
Candida tropicalis isolate 268 (ERG11 copies: 2, Erg11p: no key change) | 1 mg/L [S] | 2 mg/L [S] | 0.25 mg/L [S] | 0.03 mg/L [S] | 0.03 mg/L [S] | 0.03 mg/L [S] | ≤ 0.06 mg/L [S] | 0.5 mg/L [R] | 0.12 mg/L [S]
Candida tropicalis isolate 269 (ERG11 copies: 6, Erg11p: Y132F, S154F (heterozygous)) | 1 mg/L [S] | 256 mg/L [R] | 0.5 mg/L [S] | 0.03 mg/L [S] | 0.12 mg/L [S] | 0.03 mg/L [S] | ≤ 0.06 mg/L [S] | 0.5 mg/L [R] | ≥ 8 mg/L [R]

MIC of invasive clinical C. tropicalis isolates, CLSI broth microdilution (fluconazole 0.12-256 mg/L, up to 1,024 for the azole-resistant cluster and its neighbour group; other ranges not stated); higher = less susceptible. Call: susceptible or wild type [S] / resistant or non-wild type [R] by CLSI breakpoints or cut-offs; intermediate and dose-dependent carry no call. '<=' and '>=' at the end values are inferred; the source marks only some of them. Isolates are numbered anew.
